Data reported in article PMC6703689.
No constants are given. Whether binding was seen depends on the method and setting. Binding seen in cells or lysates may run through a third protein. Some results given as binding are weak or reduced against the parent protein; the word gives no strength.

Sequences of proteins named here, by UniProt entry; tags and fusion partners are left off.
UniProt Q7Z434: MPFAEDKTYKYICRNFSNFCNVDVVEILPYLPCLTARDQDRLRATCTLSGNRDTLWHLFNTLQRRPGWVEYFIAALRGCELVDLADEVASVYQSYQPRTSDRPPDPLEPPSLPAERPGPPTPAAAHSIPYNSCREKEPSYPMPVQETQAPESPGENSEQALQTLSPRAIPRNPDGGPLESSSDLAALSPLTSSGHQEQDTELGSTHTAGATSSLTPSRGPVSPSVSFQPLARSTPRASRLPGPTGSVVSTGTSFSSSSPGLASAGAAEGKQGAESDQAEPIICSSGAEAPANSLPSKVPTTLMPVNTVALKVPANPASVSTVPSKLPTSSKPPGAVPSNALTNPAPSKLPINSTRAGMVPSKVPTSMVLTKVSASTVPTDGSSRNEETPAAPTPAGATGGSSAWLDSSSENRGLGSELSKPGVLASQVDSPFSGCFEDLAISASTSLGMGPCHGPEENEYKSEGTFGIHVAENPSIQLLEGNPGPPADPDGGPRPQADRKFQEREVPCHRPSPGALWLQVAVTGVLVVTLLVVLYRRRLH

T1: endogenous MDA5 (human (endogenous in HEK293)) (UniProt Q9BYX4)
T1 sequence: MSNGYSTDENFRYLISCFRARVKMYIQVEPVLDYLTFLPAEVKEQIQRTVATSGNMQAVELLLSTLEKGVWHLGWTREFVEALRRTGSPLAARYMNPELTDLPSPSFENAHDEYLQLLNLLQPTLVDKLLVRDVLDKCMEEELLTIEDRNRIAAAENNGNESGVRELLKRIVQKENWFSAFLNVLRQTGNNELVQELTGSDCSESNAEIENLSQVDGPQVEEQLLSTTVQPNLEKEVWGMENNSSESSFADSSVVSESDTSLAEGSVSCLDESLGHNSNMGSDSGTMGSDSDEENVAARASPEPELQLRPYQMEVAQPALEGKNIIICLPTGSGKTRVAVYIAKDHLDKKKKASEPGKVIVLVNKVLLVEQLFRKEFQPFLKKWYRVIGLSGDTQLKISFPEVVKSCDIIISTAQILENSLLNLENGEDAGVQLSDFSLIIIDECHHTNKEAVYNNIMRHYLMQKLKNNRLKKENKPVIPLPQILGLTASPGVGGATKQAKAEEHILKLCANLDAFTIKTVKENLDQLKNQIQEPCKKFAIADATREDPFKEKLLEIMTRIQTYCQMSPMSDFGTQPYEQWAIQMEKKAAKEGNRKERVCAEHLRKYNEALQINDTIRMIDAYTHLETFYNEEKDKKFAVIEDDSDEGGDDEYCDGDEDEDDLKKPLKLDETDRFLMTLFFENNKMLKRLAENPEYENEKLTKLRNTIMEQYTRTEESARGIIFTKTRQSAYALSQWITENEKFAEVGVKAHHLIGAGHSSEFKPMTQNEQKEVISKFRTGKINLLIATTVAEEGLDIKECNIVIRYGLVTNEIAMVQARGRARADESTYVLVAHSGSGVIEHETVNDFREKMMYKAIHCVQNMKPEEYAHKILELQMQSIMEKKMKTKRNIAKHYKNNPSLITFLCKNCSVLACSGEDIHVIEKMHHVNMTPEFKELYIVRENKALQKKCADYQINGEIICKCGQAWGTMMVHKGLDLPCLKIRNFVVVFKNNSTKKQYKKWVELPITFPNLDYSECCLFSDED

T2: endogenous RIG-I (human (endogenous in HEK293)) (UniProt O95786)
T2 sequence: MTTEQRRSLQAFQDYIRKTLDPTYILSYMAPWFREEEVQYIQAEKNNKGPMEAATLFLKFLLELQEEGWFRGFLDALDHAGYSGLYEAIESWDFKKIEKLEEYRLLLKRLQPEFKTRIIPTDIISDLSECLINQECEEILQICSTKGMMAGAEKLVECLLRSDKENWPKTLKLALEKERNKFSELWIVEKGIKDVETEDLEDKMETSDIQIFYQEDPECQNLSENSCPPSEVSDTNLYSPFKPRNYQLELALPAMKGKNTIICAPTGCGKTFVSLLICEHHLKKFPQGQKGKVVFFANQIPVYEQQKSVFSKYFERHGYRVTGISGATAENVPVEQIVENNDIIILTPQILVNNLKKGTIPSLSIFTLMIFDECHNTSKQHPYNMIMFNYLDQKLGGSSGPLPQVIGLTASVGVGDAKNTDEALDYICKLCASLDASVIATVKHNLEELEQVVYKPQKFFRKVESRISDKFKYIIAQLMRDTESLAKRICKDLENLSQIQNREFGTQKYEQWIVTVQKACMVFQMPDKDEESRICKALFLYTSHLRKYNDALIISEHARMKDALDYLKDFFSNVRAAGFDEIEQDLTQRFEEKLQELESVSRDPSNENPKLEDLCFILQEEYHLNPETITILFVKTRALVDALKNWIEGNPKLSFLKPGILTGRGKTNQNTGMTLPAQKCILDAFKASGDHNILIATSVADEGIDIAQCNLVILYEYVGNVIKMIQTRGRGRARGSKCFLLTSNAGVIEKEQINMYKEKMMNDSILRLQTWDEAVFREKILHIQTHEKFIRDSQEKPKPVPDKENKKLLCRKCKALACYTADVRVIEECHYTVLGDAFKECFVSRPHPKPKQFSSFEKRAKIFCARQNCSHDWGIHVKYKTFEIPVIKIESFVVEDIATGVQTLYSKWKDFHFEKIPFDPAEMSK

T3: retinoic acid-inducible gene-I (RIG-I), transfected (human) (UniProt O95786)
T3 sequence: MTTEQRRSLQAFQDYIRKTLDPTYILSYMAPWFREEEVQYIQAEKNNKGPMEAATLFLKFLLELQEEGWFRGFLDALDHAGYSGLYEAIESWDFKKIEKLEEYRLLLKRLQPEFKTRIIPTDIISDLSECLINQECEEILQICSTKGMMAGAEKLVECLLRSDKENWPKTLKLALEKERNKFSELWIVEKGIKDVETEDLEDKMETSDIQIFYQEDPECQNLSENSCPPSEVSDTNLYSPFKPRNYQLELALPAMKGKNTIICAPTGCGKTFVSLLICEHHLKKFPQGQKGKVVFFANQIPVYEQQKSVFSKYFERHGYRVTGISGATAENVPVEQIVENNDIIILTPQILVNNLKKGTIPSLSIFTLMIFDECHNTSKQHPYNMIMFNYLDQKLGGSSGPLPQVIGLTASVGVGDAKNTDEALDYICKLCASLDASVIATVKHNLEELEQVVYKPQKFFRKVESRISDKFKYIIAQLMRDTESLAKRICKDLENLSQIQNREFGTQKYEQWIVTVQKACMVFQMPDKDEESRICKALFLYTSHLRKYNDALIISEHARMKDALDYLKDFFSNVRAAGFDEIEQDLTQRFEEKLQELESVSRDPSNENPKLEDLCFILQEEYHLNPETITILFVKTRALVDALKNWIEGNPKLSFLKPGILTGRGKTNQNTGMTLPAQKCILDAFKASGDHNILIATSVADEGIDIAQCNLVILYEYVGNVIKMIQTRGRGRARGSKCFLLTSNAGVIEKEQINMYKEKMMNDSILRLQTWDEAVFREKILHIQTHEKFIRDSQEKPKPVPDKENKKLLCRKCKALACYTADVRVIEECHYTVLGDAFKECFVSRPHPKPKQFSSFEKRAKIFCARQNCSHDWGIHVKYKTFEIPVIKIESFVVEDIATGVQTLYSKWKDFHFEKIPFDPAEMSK

T4: MDA5, transfected (human) (UniProt Q9BYX4)
T4 sequence: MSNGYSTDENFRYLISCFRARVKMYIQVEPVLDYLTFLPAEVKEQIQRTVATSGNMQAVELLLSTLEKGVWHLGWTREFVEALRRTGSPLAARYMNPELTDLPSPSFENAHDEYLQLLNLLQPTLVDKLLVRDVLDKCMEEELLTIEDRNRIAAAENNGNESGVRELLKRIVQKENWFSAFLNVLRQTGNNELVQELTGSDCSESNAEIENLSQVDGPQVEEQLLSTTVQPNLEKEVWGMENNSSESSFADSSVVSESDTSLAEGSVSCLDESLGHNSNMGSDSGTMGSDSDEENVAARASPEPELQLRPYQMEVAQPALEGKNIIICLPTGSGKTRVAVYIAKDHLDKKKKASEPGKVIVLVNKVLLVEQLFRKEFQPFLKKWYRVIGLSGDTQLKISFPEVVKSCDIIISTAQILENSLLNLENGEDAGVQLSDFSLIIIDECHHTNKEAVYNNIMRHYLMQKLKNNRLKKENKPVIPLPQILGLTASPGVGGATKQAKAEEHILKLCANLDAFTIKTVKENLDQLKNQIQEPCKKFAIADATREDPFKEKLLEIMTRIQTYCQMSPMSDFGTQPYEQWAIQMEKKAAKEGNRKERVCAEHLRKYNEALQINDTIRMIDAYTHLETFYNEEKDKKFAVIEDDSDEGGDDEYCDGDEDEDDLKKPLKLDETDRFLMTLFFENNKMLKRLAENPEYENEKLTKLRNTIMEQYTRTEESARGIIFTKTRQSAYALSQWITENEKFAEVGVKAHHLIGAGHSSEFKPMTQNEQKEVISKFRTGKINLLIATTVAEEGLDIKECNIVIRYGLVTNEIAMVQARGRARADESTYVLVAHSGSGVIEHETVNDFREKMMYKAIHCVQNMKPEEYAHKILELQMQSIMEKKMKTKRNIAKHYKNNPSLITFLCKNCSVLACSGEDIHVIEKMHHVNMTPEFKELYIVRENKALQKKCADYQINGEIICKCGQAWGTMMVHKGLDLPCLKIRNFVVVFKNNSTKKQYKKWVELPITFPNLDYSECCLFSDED


Experiments:
[1] = biological target: T1, endogenous MDA5 (human (endogenous in HEK293)); experiment: co-IP; endogenous proteins; HEK293 cells treated with IFN-β (50 ng/ml) for 1 hour, then left un-infected or infected with SeV for the indicated times
[2] = biological target: T2, endogenous RIG-I (human (endogenous in HEK293)); experiment: as above
[3] = biological target: T3, retinoic acid-inducible gene-I (RIG-I), transfected (human); experiment: co-IP; HEK293 cells transiently transfected with the indicated plasmids; NP-40 lysis buffer (20 mM Tris-HCl pH 7.4, 150 mM NaCl, 1 mM EDTA, 1% NP-40); immunoprecipitation and immunoblotting
[4] = biological target: T4, MDA5, transfected (human); experiment: as above
VISA = VISA (UniProt Q7Z434); experiment: as above

Row | binding [1] | binding [2] | binding [3] | binding [4] | binding (VISA) | Binder
1 | – | – | no binding | no binding | – | hnRNPM (aa281-653) (domain or fragment, UniProt P52272 281-653) RALPKGDFFPPERPQQLPHGLGGIGMGLGPGGQPIDANHLNKGIGMGNIGPAGMGMEGIGFGINKMGGMEGPFGGGMENMGRFGSGMNMGRINEILSNALKRGEIIAKQGGGGGGGSVPGIERMGPGIDRLGGAGMERMGAGLGHGMDRVGSEIERMGLVMDRMGSVERMGSGIERMGPLGLDHMASSIERMGQTMERIGSGVERMGAGMGFGLERMAAPIDRVGQTIERMGSGVERMGPAIERMGLSMERMVPAGMGAGLERMGPVMDRMATGLERMGANNLERMGLERMGANSLERMGLERMGANSLERMGPAMGPALGAGIERMGLAMGGGGGASFDRAIEMERGNFGGSFAGSFGGAGGHAPGVARKAC
2 | – | – | no binding | no binding | – | hnRNPM (aa204-729) (domain or fragment, UniProt P52272 204-729) STVFVANLDYKVGWKKLKEVFSMAGVVVRADILEDKDGKSRGIGTVTFEQSIEAVQAISMFNGQLLFDRPMHVKMDERALPKGDFFPPERPQQLPHGLGGIGMGLGPGGQPIDANHLNKGIGMGNIGPAGMGMEGIGFGINKMGGMEGPFGGGMENMGRFGSGMNMGRINEILSNALKRGEIIAKQGGGGGGGSVPGIERMGPGIDRLGGAGMERMGAGLGHGMDRVGSEIERMGLVMDRMGSVERMGSGIERMGPLGLDHMASSIERMGQTMERIGSGVERMGAGMGFGLERMAAPIDRVGQTIERMGSGVERMGPAIERMGLSMERMVPAGMGAGLERMGPVMDRMATGLERMGANNLERMGLERMGANSLERMGLERMGANSLERMGPAMGPALGAGIERMGLAMGGGGGASFDRAIEMERGNFGGSFAGSFGGAGGHAPGVARKACQIFVRNLPFDFTWKMLKDKFNECGHVLYADIKMENGKSKGCGVVKFESPEVAERACRMMNGMKLSGREIDVRIDRN

Further lines, the binder ahead of its results:

Row | Binder | binding [1] | binding [2] | binding [3] | binding [4] | binding (VISA)
3 | endogenous hnRNPM (protein, UniProt P52272 1-730) MAAGVEAAAEVAATEIKMEEESGAPGVPSGNGAPGPKGEGERPAQNEKRKEKNIKRGGNRFEPYANPTKRYRAFITNIPFDVKWQSLKDLVKEKVGEVTYVELLMDAEGKSRGCAVVEFKMEESMKKAAEVLNKHSLSGRPLKVKEDPDGEHARRAMQKVMATTGGMGMGPGGPGMITIPPSILNNPNIPNEIIHALQAGRLGSTVFVANLDYKVGWKKLKEVFSMAGVVVRADILEDKDGKSRGIGTVTFEQSIEAVQAISMFNGQLLFDRPMHVKMDERALPKGDFFPPERPQQLPHGLGGIGMGLGPGGQPIDANHLNKGIGMGNIGPAGMGMEGIGFGINKMGGMEGPFGGGMENMGRFGSGMNMGRINEILSNALKRGEIIAKQGGGGGGGSVPGIERMGPGIDRLGGAGMERMGAGLGHGMDRVGSEIERMGLVMDRMGSVERMGSGIERMGPLGLDHMASSIERMGQTMERIGSGVERMGAGMGFGLERMAAPIDRVGQTIERMGSGVERMGPAIERMGLSMERMVPAGMGAGLERMGPVMDRMATGLERMGANNLERMGLERMGANSLERMGLERMGANSLERMGPAMGPALGAGIERMGLAMGGGGGASFDRAIEMERGNFGGSFAGSFGGAGGHAPGVARKACQIFVRNLPFDFTWKMLKDKFNECGHVLYADIKMENGKSKGCGVVKFESPEVAERACRMMNGMKLSGREIDVRIDRNA | binds | binds | – | – | –
4 | MDA5, transfected (protein, UniProt Q9BYX4 1-1025) MSNGYSTDENFRYLISCFRARVKMYIQVEPVLDYLTFLPAEVKEQIQRTVATSGNMQAVELLLSTLEKGVWHLGWTREFVEALRRTGSPLAARYMNPELTDLPSPSFENAHDEYLQLLNLLQPTLVDKLLVRDVLDKCMEEELLTIEDRNRIAAAENNGNESGVRELLKRIVQKENWFSAFLNVLRQTGNNELVQELTGSDCSESNAEIENLSQVDGPQVEEQLLSTTVQPNLEKEVWGMENNSSESSFADSSVVSESDTSLAEGSVSCLDESLGHNSNMGSDSGTMGSDSDEENVAARASPEPELQLRPYQMEVAQPALEGKNIIICLPTGSGKTRVAVYIAKDHLDKKKKASEPGKVIVLVNKVLLVEQLFRKEFQPFLKKWYRVIGLSGDTQLKISFPEVVKSCDIIISTAQILENSLLNLENGEDAGVQLSDFSLIIIDECHHTNKEAVYNNIMRHYLMQKLKNNRLKKENKPVIPLPQILGLTASPGVGGATKQAKAEEHILKLCANLDAFTIKTVKENLDQLKNQIQEPCKKFAIADATREDPFKEKLLEIMTRIQTYCQMSPMSDFGTQPYEQWAIQMEKKAAKEGNRKERVCAEHLRKYNEALQINDTIRMIDAYTHLETFYNEEKDKKFAVIEDDSDEGGDDEYCDGDEDEDDLKKPLKLDETDRFLMTLFFENNKMLKRLAENPEYENEKLTKLRNTIMEQYTRTEESARGIIFTKTRQSAYALSQWITENEKFAEVGVKAHHLIGAGHSSEFKPMTQNEQKEVISKFRTGKINLLIATTVAEEGLDIKECNIVIRYGLVTNEIAMVQARGRARADESTYVLVAHSGSGVIEHETVNDFREKMMYKAIHCVQNMKPEEYAHKILELQMQSIMEKKMKTKRNIAKHYKNNPSLITFLCKNCSVLACSGEDIHVIEKMHHVNMTPEFKELYIVRENKALQKKCADYQINGEIICKCGQAWGTMMVHKGLDLPCLKIRNFVVVFKNNSTKKQYKKWVELPITFPNLDYSECCLFSDED | – | – | – | – | binds
